The whole screen tested about 16,000 compounds, of which about 120 (0.75%) were called active. Another 4% or so got no clear call; they are omitted. The call rests on the fitted dose curve; in most records, active means well fitted inhibition curve with a large enough effect; inconclusive means small, poorly fitted or top-dose-only effect; inactive means no such curve, though single readings can be large or run the other way. The list shows a part of the results. *1 amine or outer side, *2 acyl side, *3 side chain or, on linkers, in order; H or OH if unused. Where a SMILES comes first, the peptide text is derived from it. Bridges are numbered along the chain shown (N, C = ends). [ ]: non-standard residue; d: D form. The star is where a group is joined. ξ: configuration not given here. ΔAla(E,3-NHCONH2) = NC(=O)N/C=C(/N)C(=O)O; X11 = NC1=NCCC(C(N[*:1])C(=O)[*:2])N1; ξβ3hOrn = NCCCC(N)CC(=O)*; Dap = NC[CH](N)C(=O)O
target: Rap guanine nucleotide exchange factor 3 (Homo sapiens) (UniProt O95398); experiment: Validation qHTS for antagonist of cAMP-regulated guanine nucleotide exchange factor 3 (EPAC1); conditions: EPAC1 Rap1B-BODIPY-GDP exchange, fluorescence; series mostly up to 150 µM; activity change, negative = inhibition: at the top concentration;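 further: plate controls were DMSO for no effect and ATA control for full effect; nearly all actives have a fitted effect of over 75% in size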
In short: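 Nucleotide exchange followed as fluorescence loss when BODIPY-GDP leaves Rap1B (480 nm excitation, 540 nm emission), read at 5 min intervals over 30 min. Reaction: 100 nM EPAC1, 250 nM RAP1B-BODIPY-GDP, 50 uM GDP; ATA and DMSO define normalization.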

Chain of UniProt O95398 (O95398 whole entry, looked up): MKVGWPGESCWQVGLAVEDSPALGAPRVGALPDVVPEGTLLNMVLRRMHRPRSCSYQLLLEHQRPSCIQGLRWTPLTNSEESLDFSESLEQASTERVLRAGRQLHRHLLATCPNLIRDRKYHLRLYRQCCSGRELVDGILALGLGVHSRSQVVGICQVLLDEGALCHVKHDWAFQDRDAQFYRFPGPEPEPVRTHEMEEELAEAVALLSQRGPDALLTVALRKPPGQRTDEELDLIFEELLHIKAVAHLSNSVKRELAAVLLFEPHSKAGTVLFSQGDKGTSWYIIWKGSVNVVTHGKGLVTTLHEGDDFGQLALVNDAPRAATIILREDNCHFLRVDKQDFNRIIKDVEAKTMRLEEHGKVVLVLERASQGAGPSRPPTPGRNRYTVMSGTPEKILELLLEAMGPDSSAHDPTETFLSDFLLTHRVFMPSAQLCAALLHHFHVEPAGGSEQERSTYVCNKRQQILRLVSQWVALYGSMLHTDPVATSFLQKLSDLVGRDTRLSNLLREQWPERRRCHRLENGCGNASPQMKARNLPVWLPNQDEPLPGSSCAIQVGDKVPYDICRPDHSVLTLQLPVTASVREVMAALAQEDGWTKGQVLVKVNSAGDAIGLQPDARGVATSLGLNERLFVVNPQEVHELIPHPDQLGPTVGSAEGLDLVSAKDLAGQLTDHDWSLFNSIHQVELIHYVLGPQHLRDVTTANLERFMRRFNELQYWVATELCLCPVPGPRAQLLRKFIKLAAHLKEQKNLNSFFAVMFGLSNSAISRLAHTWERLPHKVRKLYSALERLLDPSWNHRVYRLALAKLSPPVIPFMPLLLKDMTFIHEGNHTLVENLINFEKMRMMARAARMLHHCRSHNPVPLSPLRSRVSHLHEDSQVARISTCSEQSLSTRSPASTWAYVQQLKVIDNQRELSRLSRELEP

Activity change, negative = inhibition, inactive:
CC(=O)OC1c2c(ccc3ccc(=O)oc23)OC(C)(C)C1OC(=O)CC(C)C (stereo not drawn) -21.8%
CC(C)NCC(O)COc1cccc2ccccc12 (stereo not drawn)
CCC1(C2CCN(C(=O)c3ccccc3C(C)=O)CC2)NC(=O)N(CCc2scnc2C)C1=O (stereo not drawn) 9.64%
COc1ccc(C(=O)N2CCC3(CCN(Cc4ccncc4)CC3)CC2)cc1 13.7%
CC(=O)Nc1c(I)c(C(=O)O)c(I)c(N(C)C(C)=O)c1I 11.8%
CC(=O)N[C@H](CS)C(=O)O -0.582%
CC(C)(C)NC[C@H](O)c1ccc(O)c(CO)c1 1.88%
Cc1cc2c(cc1C)N[C@]1(C[C@H]3CCCC(=O)N4CC[C@@H](C1)[C@@H]34)C(=Nc1ccccc1C)N2 8.32%
CN(CC(=O)O)c1ccc(C=O)cc1 -3.03%
C[C@@](N)(C(=O)O)c1ccc(S(=O)(=O)O)cc1 6.23%
CCOc1ccccc1OCCN[C@H](C)Cc1ccc(OC)c(S(N)(=O)=O)c1 14.1%
Cc1cc2c(c(-c3cnccn3)c1)OC(CNC(=O)c1c(F)cccc1Cl)C2 (stereo not drawn) 15.3%
CCCCCCCCCCCCC[N+](C)(C)Cc1ccccc1 0.354%
CCCCCCCCCCC/C=C\C(C)(C)/C=C\CCCC(=O)O 19.2% [at 15.3 µM]
Nc1nc2c(ncn2C2OC(CO)CC2O)c(=O)[nH]1 (stereo not drawn) 18.3%
CC(C)[N+]1(C)C2CCC1CC(OC(=O)C(CO)c1ccccc1)C2 (stereo not drawn)
C(=C\c1ccnc2ccccc12)/c1ccc(N2CCNCC2)cc1 13.8%
O=S(=O)(O)CCS
O=S1(=O)CCOCCCN1Cc1ccccc1 0.969%
NCCCC(N)CC(=O)NCC1NC(=O)C(CO)NC(=O)C(N)CNC(=O)C(C2CCN=C(N)N2)NC(=O)/C(=C\NC(N)=O)NC1=O (stereo not drawn) (H-[Dap]S[Dap](ξβ3hOrn)[ΔAla(E,3-NHCONH2)][X11]; lactam 1-C; configuration not given here) 10.9%
CCn1cc(C(=O)O)c(=O)c2cnc(N3CCCC3)nc21
O=C(c1ccncc1)N1CCC2(CC1)CCN(c1ccccc1)CC2 18.3%
CCOC(=O)OC(C)OC1=C(C(=O)Nc2ccccn2)N(C)S(=O)(=O)c2ccccc21 (stereo not drawn) 1.46%
CC(=O)[C@H]1CC[C@H]2[C@@H]3C[C@H](C)C4=CC(=O)CC[C@]4(C)[C@H]3[C@@H](O)C[C@]12C 11.1% [at 75.8 µM]
[N-]=[N+]=N[C@@H](CCN1CC[C@H](NC(=O)OCc2ccccc2)CCC1=O)c1ccccc1 -8.2%
COCCn1c(=O)c(-c2cccs2)nc2cnc(N3CCN(C)CC3)nc21 2.05%
N#Cc1ccc(CN2CCC3(CCNCC3)CC2)cc1 7.55%
C[C@]12CC[C@@H]3c4ccc(O)cc4CC[C@H]3[C@@H]1CC[C@@H]2OP(=O)(O)O -2.16%
COC1C(O)CC(=O)OC(C)C/C=C/C=C/[C@@H](OC2CCC(N(C)C)C(C)O2)C(C)C[C@@H](CC=O)[C@@H]1O[C@H]1OC(C)[C@H](O[C@@H]2C[C@@](C)(O)C(O)C(C)O2)C(N(C)C)C1O (stereo partly drawn) -7.87%
COc1ccc(-c2nc3cnc(N4CCOCC4)nc3n(C[C@H]3CCCO3)c2=O)cc1 0.982%
COC(=O)c1c(C)cc(O)cc1O 7.49%
O=Cc1ccc2[nH]ccc2c1 26.2%
COc1c(CO)cc(CO)cc(CO)c1=O 17.1%
N#CCCn1c(=O)c(-c2ccccc2)nc2cnc(N3CCOCC3)nc21 -10.1%
Cc1cc(O)cc2c1O[C@](C)(CCC[C@H](C)CCC[C@H](C)CCCC(C)C)CC2
CCCCNC(=O)NS(=O)(=O)c1ccc(C)cc1
Nc1c2ccccc2nc2ccccc12 (tested in a mixture with another compound) -20.2%
COc1cccc(CN(C)C(=O)c2cnn(-c3nccc(-c4ccc5c(c4)OCO5)n3)c2C)c1 24.9%
COc1ccc2[nH]cc(CCNc3ncncc3-c3ccc(N(C)C)cc3)c2c1 -16.3%
COc1ccc(-c2oc3ccccc3c(=O)c2O)cc1OC -11.7%
Cc1c(C(=O)NN2CCOCC2)nn(-c2ccc(Cl)cc2Cl)c1-c1ccc(I)cc1 8.58%
CCN1CC(CCN2CCOCC2)C(c2ccccc2)(c2ccccc2)C1=O (stereo not drawn) 2.93%
N[C@@H](C(=O)N[C@@H]1C(=O)N2C(C(=O)O)=C(CSc3cn[nH]n3)CS[C@H]12)c1ccc(O)cc1 38.8%
CCNc1ncc2nc(-c3cccc(C#N)c3)c(=O)n(CCC#N)c2n1 17.7%
N[C@H](Cc1ccc(Cl)cc1)C(=O)O 9.73%
O=C(NCC1Cc2cc(-c3cnc4ccccc4c3)cc(F)c2O1)c1cnsn1 (stereo not drawn) 4%
COc1ccccc1C1CN(Cc2cn(C)nc2C)Cc2ccccc2O1 (stereo not drawn) 0.614%
COc1ccc(-c2cc(=O)c3ccc(O)cc3o2)cc1 24.3%
Cc1cc(C)c2ccccc2n1 17.4%
COCCn1c(=O)c(CCc2ccccc2)nc2cncnc21 -11.2%
Cc1cnc(CNc2nc(-c3ccccc3C)nc3ccccc23)cn1 -3.8%
OC1CCN(Cc2ccc3c(c2)CN(C/C=C/c2ccco2)CCO3)CC1 18.6%
Cc1noc(C)c1C(=O)N1CCC2(CC1)CCN(c1cccc(-c3ccccc3)c1)CC2 -22.8%
CC1CCC2(C(=O)O)CCC3(C)C(=CCC4C3(C)CCC3[C@@]4(C)CC(O)C(O)[C@@]3(C)CO)C2C1C (stereo partly drawn) 4.26%
COc1ccc2nc(NC(=O)Nc3ccccc3)sc2c1 9.71%
CS(=O)(=O)Nc1cccc(-c2ccc3ncnc(NCc4cccnc4)c3c2)c1 1.9%
Cc1ccccc1-c1cc(NCc2ccccc2)ncn1 9.62%
CC(=O)NCCNc1nc(-c2ccccc2C(F)(F)F)nc2ccccc12 11.1%
Nc1ncnc2c1ncn2[C@@H]1O[C@H](COP(=O)(O)OP(=O)(O)OP(=O)(O)O)[C@@H](O)[C@H]1O -1.09%
CCC(=O)O[C@]1(C(=O)CCl)[C@@H](C)C[C@H]2[C@@H]3C[C@H](F)C4=CC(=O)C=C[C@]4(C)[C@@]3(F)[C@@H](O)C[C@@]21C -8.52%
CC(C)Oc1ccc2c(=O)c3cc(C(=O)O)ccc3oc2c1 3.91%
CCOC(=O)/C=C/c1ccc2c(c1)S(=O)(=O)N(Cc1ccc(OC)cc1)[C@H]2CC(=O)OCC -13.9%
c1ccc(Nc2ncncc2-c2ccoc2)cc1 22.2%

Source: PubChem BioAssay AID1645882 (National Center for Advancing Translational Sciences (NCATS), 2021)
